Our source for the enrichment ratio values is a collection of fitness landscapes (doi:10.1126/science.1257360).

B1: PhoQ; a variant is named by its letters at X, in order, P23837 (parent)
chain: MKKLLRLFFPLSLRVRFLLATAAVVLVLSLAYGMVALIGYSVSFDKTTFRLLRGESNLFYTLAKWENNKLHVELPENIDKQSPTMTLIYDENGQLLWAQRDVPWLMKMIQPDWLKSNGFHEIEADVNDTSLLLSGDHSIQQQLQEVREDDDDAEMTHSVAVNVYPATSRMPKLTIVVVDTIPVELKSSYMVWSWFIYVLSANLLLVIPLLWVAAWWSLRPIEALAKEVRELEEHNRELLNPATTRELTSLVRNLNRLLKSERERYDKYRTTLTDLTHSLKTPLXXLQXXLRSLRSEKMSVSDAEPVMLEQISRISQQIGYYLHRASMRGGTLLSRELHPVAPLLDNLTSALNKVYQRKGVNISLDISPEISFVGEQNDFVEVMGNVLDNACKYCLEFVEISARQTDEHLYIVVEDDGPGIPLSKREVIFDRGQRVDTLRPGQGVGLAVAREITEQYEGKIVAGESMLGGARMEVIFGRQHSAPKDE

This is one part of the list.

In this assay the parent is B1. Put plainly: enrichment ratio after two sorts for PhoP signalling (ratio (wild type AVST 3.29)); higher = more functional. To be noted: with PhoP (E. coli).
As for LWLR, the enrichment ratio is ≤ 0.25. MEWF: the enrichment ratio was ≤ 0.25. The result for EYHM reads ≤ 0.25. In the case of FADL it was ≤ 0.25; in that of SSFV, 1.16. The result for VRFH reads ≤ 0.25. Turning to YQGM, the enrichment ratio is ≤ 0.25. Consider KKSH, for which the enrichment ratio is ≤ 0.25. Regarding WFAR, the enrichment ratio is ≤ 0.25. In the case of SAYF, the enrichment ratio is ≤ 0.25. As for RQRC, the enrichment ratio is ≤ 0.25. The result for SPFG reads ≤ 0.25; that for MCAL, 13.5. In the case of FLCW it was ≤ 0.25; in that of IDFG, ≤ 0.25. The result for NVVP reads ≤ 0.25; that for VPLW, ≤ 0.25. As to VQDM, the enrichment ratio was ≤ 0.25. For FYEI, the enrichment ratio was ≤ 0.25. For the variant GTCW, the enrichment ratio was ≤ 0.25.

On to VLPQ, for which the enrichment ratio is ≤ 0.25. For the variant SPNN, the enrichment ratio is ≤ 0.25. DVSP: the enrichment ratio was ≤ 0.25. The result for GLPY reads ≤ 0.25; that for RHHK, ≤ 0.25; that for PSIE, ≤ 0.25.

As to GFMH, the enrichment ratio was ≤ 0.25. Take MCHN: the enrichment ratio was ≤ 0.25. The result for KGID reads ≤ 0.25. As for YEPA, the enrichment ratio was ≤ 0.25. Regarding RCLQ, the enrichment ratio was ≤ 0.25. On to HNDH, for which the enrichment ratio was ≤ 0.25.

On to IVLM, for which the enrichment ratio was 5.53. In the case of QSEH it was ≤ 0.25; in that of MPST, ≤ 0.25. In the case of PYQW it was ≤ 0.25; in that of FRRM, ≤ 0.25. With PRMQ, the enrichment ratio is ≤ 0.25.

On to NLLN, for which the enrichment ratio is ≤ 0.25. KPMY: the enrichment ratio is ≤ 0.25. In the case of VKHI it was ≤ 0.25.

AAMA: the enrichment ratio was ≤ 0.25.

On to RCAP, for which the enrichment ratio was ≤ 0.25. Turning to TPIV, the enrichment ratio is ≤ 0.25. In the case of KMTC it was ≤ 0.25; in that of WAEW, ≤ 0.25. In the case of YDYC it was ≤ 0.25. In the case of TYGI, the enrichment ratio is ≤ 0.25. Consider STKM, for which the enrichment ratio was ≤ 0.25.

Regarding PVTT, the enrichment ratio is ≤ 0.25.

For the variant YIIN, the enrichment ratio is ≤ 0.25. The result for TNTH reads 1.01. For RYDL, the enrichment ratio is ≤ 0.25. In the case of EQMT it was ≤ 0.25; in that of ETWP, ≤ 0.25. Regarding MCMH, the enrichment ratio is ≤ 0.25. The result for KSCI reads ≤ 0.25; that for ENVI, ≤ 0.25; that for TSTQ, 16. In the case of QCKS it was ≤ 0.25; in that of AFWD, ≤ 0.25; in that of WHPC, ≤ 0.25. In the case of QEPN it was ≤ 0.25; in that of YKAS, ≤ 0.25; in that of TQSH, 3.13. Consider LWCW, for which the enrichment ratio was ≤ 0.25. As for HTMQ, the enrichment ratio was ≤ 0.25. The result for QQSC reads 1.63; that for PFLG, ≤ 0.25; that for MEHS, ≤ 0.25. In the case of AIDC it was ≤ 0.25; in that of ARAI, ≤ 0.25. In the case of TLNY it was ≤ 0.25. YVNT: the enrichment ratio is ≤ 0.25. Consider IGYG, for which the enrichment ratio was ≤ 0.25. The result for RANC reads ≤ 0.25; that for FLAI, ≤ 0.25. In the case of PKSD it was ≤ 0.25; in that of LLNV, ≤ 0.25. As for KFNN, the enrichment ratio was ≤ 0.25. As for LWAG, the enrichment ratio is ≤ 0.25.

For ETHF, the enrichment ratio is ≤ 0.25.

Take LQVW: the enrichment ratio was ≤ 0.25. Turning to DIQR, the enrichment ratio was ≤ 0.25. As for MCVN, the enrichment ratio is ≤ 0.25.

Consider RANH, for which the enrichment ratio was ≤ 0.25. On to WPDH, for which the enrichment ratio was ≤ 0.25. The result for RHCA reads ≤ 0.25. The result for TPTH reads ≤ 0.25; that for THHY, ≤ 0.25. In the case of SYVN it was ≤ 0.25; in that of KQNP, ≤ 0.25. SIIN: the enrichment ratio came to 0.251. Regarding MRMF, the enrichment ratio was determined as 1.22.

With EKGY, the enrichment ratio is ≤ 0.25. Consider PRQQ, for which the enrichment ratio was ≤ 0.25. For HYSV, the enrichment ratio was ≤ 0.25. For PEWT, the enrichment ratio is ≤ 0.25. In the case of QEAV it was ≤ 0.25.

For the variant KVDT, the enrichment ratio is ≤ 0.25. Consider TNDM, for which the enrichment ratio was 2.26. The result for TRQY reads ≤ 0.25; that for IALK, ≤ 0.25. On to ARTP, for which the enrichment ratio is ≤ 0.25. In the case of YSND it was ≤ 0.25; in that of FREI, ≤ 0.25; in that of FWHM, ≤ 0.25. Regarding YSCE, the enrichment ratio is ≤ 0.25. Regarding PYQV, the enrichment ratio was ≤ 0.25.

With EIAM, the enrichment ratio is ≤ 0.25. In the case of DAMT it was ≤ 0.25; in that of HHAL, ≤ 0.25. In the case of RPLD it was ≤ 0.25; in that of DRLW, ≤ 0.25; in that of EWHC, ≤ 0.25. In the case of NPNQ, the enrichment ratio is ≤ 0.25. RADR: the enrichment ratio was ≤ 0.25. In the case of EEHE it was ≤ 0.25; in that of MGWL, 9.14.

As to WWFT, the enrichment ratio is ≤ 0.25. Turning to TYMY, the enrichment ratio was ≤ 0.25.

For REVD, the enrichment ratio was ≤ 0.25. The result for LTCT reads ≤ 0.25. Turning to LTSC, the enrichment ratio was ≤ 0.25.

Regarding AYMW, the enrichment ratio was ≤ 0.25. For the variant PLDT, the enrichment ratio is ≤ 0.25. In the case of GGKH it was ≤ 0.25; in that of ERVL, ≤ 0.25; in that of WPMN, ≤ 0.25. The result for PEIY reads ≤ 0.25. For the variant NIKW, the enrichment ratio is ≤ 0.25. The result for YTQC reads ≤ 0.25; that for RNIK, ≤ 0.25. In the case of GVHP it was ≤ 0.25; in that of DVDT, ≤ 0.25. The result for YSAM reads ≤ 0.25; that for YWMR, ≤ 0.25. Consider MRKG, for which the enrichment ratio was ≤ 0.25. In the case of NQMD it was ≤ 0.25; in that of TRVG, ≤ 0.25; in that of HKSH, ≤ 0.25.

On to NMWW, for which the enrichment ratio is ≤ 0.25. Turning to VIRA, the enrichment ratio is ≤ 0.25. Consider VYNW, for which the enrichment ratio was ≤ 0.25. In the case of ESVF, the enrichment ratio is ≤ 0.25. In the case of LRGL it was ≤ 0.25. The result for PHAF reads ≤ 0.25. The result for ARHL reads ≤ 0.25.

On to QWLP, for which the enrichment ratio is ≤ 0.25. The result for DDDI reads ≤ 0.25. With DNGS, the enrichment ratio is ≤ 0.25.

Turning to KRVQ, the enrichment ratio is ≤ 0.25.

With EFEI, the enrichment ratio is ≤ 0.25.
